Assay results reported in the RNAGym collection of RNA variant scans (doi:10.7554/elife.90254).
The source gives no read counts; variants with many changes may rest on few reads.

B1: LINE1-mini (parent)
chain: GGCAGAGCUCAACACAGCGUGGCAAAGUGGCUGUGGCUAGACUGCC

Variants of: B1
Test: self-cleavage, relative activity (ratio to wild type); higher = more cleavage; in vitro, sequencing; the parent is a self-cleaving ribozyme
With U9A G19U C45U the self-cleavage was 0.09.
Work on U9A G21A G33A C46U yielded a self-cleavage of 0.14.
U9A G21C A26C gave a self-cleavage of 0.12.
U9A G21C C23G A39U gave a self-cleavage of 0.05.
U9A G21C C46A gave a self-cleavage of 0.14.
With U9A G21U U38C the self-cleavage was 0.06.
Work on U9A G22A G27U U43A yielded a self-cleavage of 0.12.
Work on U9A G22A G30U G33U yielded a self-cleavage of 0.06.
U9A G22U C23A gave a self-cleavage of 0.14.
For U9A G22U U32G, the self-cleavage was 0.19.
With U9A G27A G29C G35U the self-cleavage was 0.03.
With U9A G27A G36A the self-cleavage was 1.02.
In the case of U9A G27C C31U C46A, the self-cleavage is reported as 0.
U9A G27C G33U gave a self-cleavage of 0.07.
U9A G27C G44U gave a self-cleavage of 0.03.
U9A G29A C42A C46U showed a self-cleavage of 0.2.
U9A G29A G35A C37G C45U gave a self-cleavage of 0.02.
Work on U9A G29C C45U yielded a self-cleavage of 0.04.
In the case of U9A G29U C31A U34G, the self-cleavage is reported as 0.04.
Variant U9A G30U U38C has a self-cleavage of 0.17.
Variant U9A G33C G40U has a self-cleavage of 0.14.
Variant U9A G33U C46A has a self-cleavage of 0.06.
Work on U9A G35U U38C yielded a self-cleavage of 0.06.
Work on U9A G40U C45U yielded a self-cleavage of 0.56.
For U9A U20A A26U G35A, the self-cleavage was 0.01.
In the case of U9A U20A G21A A26U A39G G44C, the self-cleavage is reported as 0.02.
Work on U9A U20A G35C yielded a self-cleavage of 0.17.
U9A U20C C37G gave a self-cleavage of 0.02.
Work on U9A U20C G29U yielded a self-cleavage of 0.02.
For U9A U20G U38A G40U, the self-cleavage was 0.1.
In the case of U9A U28A G29C G36U, the self-cleavage is reported as 0.06.
U9A U28C U38G gave a self-cleavage of 0.1.
U9A U28G C42A gave a self-cleavage of 0.19.
In the case of U9A U32G C42U, the self-cleavage is reported as 0.48.
Work on U9A U38A A39G yielded a self-cleavage of 0.18.
With U9A U43C C46G the self-cleavage was 0.
In the case of U9C A11C A14G A16C C46U, the self-cleavage is reported as 0.
With U9C A11G C18G G27C the self-cleavage was 0.01.
U9C A11U C23U A41U U43A showed a self-cleavage of 0.
U9C A12C A16U showed a self-cleavage of 0.01.
U9C A12C C15G G27C A41U gave a self-cleavage of 0.
With U9C A12U C13G G19C A24U G44A the self-cleavage was 0.02.
Work on U9C A12U C13U A16U yielded a self-cleavage of 0.04.
Variant U9C A12U G44U has a self-cleavage of 0.01.
In the case of U9C A12U U20G C31A C45G C46A, the self-cleavage is reported as 0.02.
Work on U9C A14C A41U yielded a self-cleavage of 0.03.
With U9C A14C G17U G22C the self-cleavage was 0.01.
For U9C A14C G29C A41U C45U, the self-cleavage was 0.01.
U9C A14G C18U G44A showed a self-cleavage of 0.01.
Work on U9C A14G G19A C42A yielded a self-cleavage of 0.02.
With U9C A14G G27U C37A U38A the self-cleavage was 0.02.
With U9C A14G G30A C31G G36C C42G the self-cleavage was 0.01.
U9C A14G G30C showed a self-cleavage of 0.01.
For U9C A14G U34G G40C, the self-cleavage was 0.
U9C A14U C18A A25G C45A showed a self-cleavage of 0.01.
Variant U9C A14U G21U has a self-cleavage of 0.07.
With U9C A14U G27U C37U the self-cleavage was 0.01.
Variant U9C A14U G30C G40U has a self-cleavage of 0.02.
With U9C A16C C18A G27C U28A C37A the self-cleavage was 0.02.
In the case of U9C A16C G21C C42U, the self-cleavage is reported as 0.03.
Work on U9C A16C U28C U43A C46U yielded a self-cleavage of 0.
With U9C A16G G27C G33U A41U the self-cleavage was 0.01.
In the case of U9C A16U C23G G44U C46U, the self-cleavage is reported as 0.02.
In the case of U9C A16U G29A G30C, the self-cleavage is reported as 0.01.
In the case of U9C A16U G29U C31A, the self-cleavage is reported as 0.01.
With U9C A16U G30A C31A G33U the self-cleavage was 0.
Work on U9C A24C A39G C42G yielded a self-cleavage of 0.01.
For U9C A24G G30A U32C G33C, the self-cleavage was 0.03.
U9C A25C G35U gave a self-cleavage of 0.06.
With U9C A25G C37A the self-cleavage was 0.01.
Work on U9C A25G U34C C45U yielded a self-cleavage of 0.12.
For U9C A26U C31U U32C G33C, the self-cleavage was 0.01.
U9C A39U C45U gave a self-cleavage of 0.02.
In the case of U9C A41U C46U, the self-cleavage is reported as 0.04.
Variant U9C C10A A25C C46A has a self-cleavage of 0.
In the case of U9C C10A C46G, the self-cleavage is reported as 0.04.
U9C C10A G22A showed a self-cleavage of 0.05.
Work on U9C C10A G27A G29A G40A yielded a self-cleavage of 0.07.
U9C C10A G44A showed a self-cleavage of 0.02.
For U9C C10A U20A, the self-cleavage was 0.03.
With U9C C10A U43A the self-cleavage was 0.02.
U9C C10G A11C G17U showed a self-cleavage of 0.02.
U9C C10G A16U C31A A39U showed a self-cleavage of 0.01.
U9C C10G C15U G36A G44U showed a self-cleavage of 0.02.
Variant U9C C10G U20C A39C C42U has a self-cleavage of 0.01.
With U9C C10U A11G G17C the self-cleavage was 0.
In the case of U9C C10U A11G U20G, the self-cleavage is reported as 0.02.
Variant U9C C10U A14G A39U has a self-cleavage of 0.02.
For U9C C10U C42U, the self-cleavage was 0.05.
In the case of U9C C10U G17C G21C, the self-cleavage is reported as 0.01.
For U9C C10U U28C G36U G40C, the self-cleavage was 0.01.
With U9C C13A A24C U28A U32G G33U the self-cleavage was 0.01.
Variant U9C C13A G17C has a self-cleavage of 0.02.
Variant U9C C13A G21U G35A C37U has a self-cleavage of 0.01.
In the case of U9C C13A G29U, the self-cleavage is reported as 0.03.
With U9C C13A G44A the self-cleavage was 0.03.
With U9C C13G C31G the self-cleavage was 0.03.
For U9C C13U C18G G19C G33C U43C, the self-cleavage was 0.01.
U9C C13U G22A showed a self-cleavage of 0.4.
For U9C C13U G27C G44C, the self-cleavage was 0.01.
For U9C C13U U20A, the self-cleavage was 0.02.
Work on U9C C15A C18G U38C C45U yielded a self-cleavage of 0.
In the case of U9C C15A G17A, the self-cleavage is reported as 0.03.
U9C C15A G19A showed a self-cleavage of 0.02.
U9C C15A G29U C45A gave a self-cleavage of 0.01.
In the case of U9C C15A U34G, the self-cleavage is reported as 0.01.
U9C C15G A16U U20G U43G showed a self-cleavage of 0.02.
U9C C15G C45G showed a self-cleavage of 0.08.
In the case of U9C C15U C18G C42G, the self-cleavage is reported as 0.01.
In the case of U9C C15U G35A, the self-cleavage is reported as 0.06.
U9C C15U U28C C31G showed a self-cleavage of 0.04.
In the case of U9C C18A A25C C46U, the self-cleavage is reported as 0.02.
In the case of U9C C18A G27C, the self-cleavage is reported as 0.03.
Work on U9C C18G A25G U32A yielded a self-cleavage of 0.02.
U9C C18G G21U G30C gave a self-cleavage of 0.12.
For U9C C18G G30U G40A, the self-cleavage was 0.02.
Variant U9C C18U C23U has a self-cleavage of 0.02.
Variant U9C C23G A25U has a self-cleavage of 0.02.
For U9C C23G G44A, the self-cleavage was 0.02.
With U9C C23G U34C C37U the self-cleavage was 0.02.
Work on U9C C23U C46G yielded a self-cleavage of 0.01.
In the case of U9C C31U G33C U34C G40A C42A, the self-cleavage is reported as 0.02.
Variant U9C G17A C18A G30A has a self-cleavage of 0.04.
In the case of U9C G17A C23G U34G, the self-cleavage is reported as 0.01.
Variant U9C G17A C45A has a self-cleavage of 0.03.
In the case of U9C G17A G21U C23U G35C, the self-cleavage is reported as 0.01.
Work on U9C G17C G27A yielded a self-cleavage of 0.01.
Work on U9C G17C G29A G30A yielded a self-cleavage of 0.03.
In the case of U9C G17C G30C, the self-cleavage is reported as 0.02.
Variant U9C G17C U32A has a self-cleavage of 0.04.
Variant U9C G17U A41G C45G C46A has a self-cleavage of 0.02.
U9C G17U G21C G29C showed a self-cleavage of 0.02.
Variant U9C G17U G29U U38A has a self-cleavage of 0.03.
Work on U9C G19A C45A yielded a self-cleavage of 0.01.
With U9C G19A G22C G33C the self-cleavage was 0.03.
With U9C G19C A24G A26G the self-cleavage was 0.08.
U9C G19C G29U C37G showed a self-cleavage of 0.02.
For U9C G21A C23A, the self-cleavage was 0.02.
Variant U9C G21A G33U A41G has a self-cleavage of 0.02.
Work on U9C G21A U34A G36C yielded a self-cleavage of 0.12.
Variant U9C G21C C45U has a self-cleavage of 0.02.
U9C G21C G22C gave a self-cleavage of 0.01.
Work on U9C G21U G40U yielded a self-cleavage of 0.03.
For U9C G22A A24U C37A U38G, the self-cleavage was 0.01.
With U9C G22A C23A U34G C46A the self-cleavage was 0.
In the case of U9C G22A C46A, the self-cleavage is reported as 0.03.
With U9C G22U A26G G40A G44C the self-cleavage was 0.
U9C G27A G29C U38A gave a self-cleavage of 0.01.
Variant U9C G29A U32C U38A A41C G44C has a self-cleavage of 0.01.
In the case of U9C G29A U34C G35A, the self-cleavage is reported as 0.11.
U9C G29C C31A U32G G33C U34A C42U gave a self-cleavage of 0.01.
In the case of U9C G29C U43A, the self-cleavage is reported as 0.02.
For U9C G29U A39U, the self-cleavage was 0.04.
For U9C G30A G44A, the self-cleavage was 0.03.
U9C G30U C31A showed a self-cleavage of 0.04.
Work on U9C G30U U34G A39G yielded a self-cleavage of 0.
Work on U9C G35A C37A C46G yielded a self-cleavage of 0.04.
With U9C G35C U38G the self-cleavage was 0.03.
Work on U9C G35U A41C U43C yielded a self-cleavage of 0.02.
For U9C G40U C45G, the self-cleavage was 0.01.
For U9C U20G U28A G36U, the self-cleavage was 0.03.
Variant U9C U20G U32G has a self-cleavage of 0.05.
U9C U28C C31A gave a self-cleavage of 0.01.
In the case of U9C U34C C37G, the self-cleavage is reported as 0.01.
U9C U43G C46U gave a self-cleavage of 0.02.
For U9G A11C C45G, the self-cleavage was 0.02.
Variant U9G A11C G19A has a self-cleavage of 0.01.
